# According to publication PMC13083723 (Patterns, 2026):
# Hit rate of the full screen: of about 5,400 compounds, about 190 (3.5%) showed an effect of 50% or more. This is one part of the list.
# System: Vero-E6
# Assay: primary screen, phospholipidosis by LipidTOX staining; higher = more effect of the substance
# Conditions: 10 µM
# Procedure, shortened: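 Single-concentration screen at 10 μM, with DMSO 0.1 v/v % and amiodarone 10 μM as controls. Read-out is LipidTOX Red phospholipid staining, which tolerates aldehyde fixation, in Vero-E6 cells.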
row,Compound,result_ITMP
1,Cn1c(=O)c2c(ncn2CCO)n(C)c1=O,0.64%
2,CCc1cnn2c(NCc3ccc[n+]([O-])c3)cc(N3CCCC[C@H]3CCO)nc12,-2.31%
3,Cn1cnc([N+](=O)[O-])c1Sc1[nH]cnc2ncnc1-2,-1.78%
4,O=C1NC(=O)[C@@H](c2cn3c4c(cccc24)CCC3)[C@@H]1c1c[nH]c2ccccc12,1.44%
5,CC(C)(COP(=O)([O-])OP(=O)([O-])OC[C@H]1O[C@@H](n2cnc3c(N)ncnc32)[C@H](O)[C@@H]1OP(=O)([O-])O)[C@@H](O)C(=O)NCCC(=O)NCCS,-4.31%
6,CC(=O)O[C@H]1CC[C@@]2(C)C(=CC(=O)[C@@H]3[C@@H]2CC[C@]2(C)C(=O)CC[C@@H]32)C1,-7.66%
7,c1ccc(CC(c2ccccc2)N2CCCCC2)cc1 (racemic),6.03%
8,CC(=O)Nc1ccc(C(=O)NC(C)(C)C)cc1,-9.36%
9,O=[N+]([O-])c1cccc2c(Br)n[nH]c12,-2.56%
10,Cc1cc(C)c(C2=NOC3C4CCC(C4)C23)c(C)c1 (centres unmarked),-1.19%
11,CC(=O)N[C@H]1CSSC[C@@H](C(N)=O)NC(=O)[C@H](C(C)C)NC(=O)[C@H](C)NC(=O)[C@H](Cc2cnc[nH]2)NC1=O,0.65%
12,C[C@@]1(c2cc(-c3cncnc3)c(F)cc2F)CCSC(N)=N1,1.83%
13,CCc1ccc(/C=C/C(=O)Nc2ccc(C(C)=O)cc2)o1,-2.21%
14,CCCN1CCN(c2ccc(C(=O)NC3(C(=O)NCC#N)CCCCC3)cc2)CC1,-1.08%
15,O=S(=O)([O-])CCCS(=O)(=O)[O-],-2.16%
16,CN1CCc2cc3c(cc2C1O)OCO3 (centres unmarked),-1.84%
17,CCCCCCCCCCCCCCCCCCCCCC(=O)Nc1ccn([C@@H]2O[C@H](CO)[C@@H](O)[C@@H]2O)c(=O)n1,-5.92%
18,CC(C)NCC(O)c1cc(O)cc(O)c1 (centres unmarked),-4.82%
19,CC(C)NCC(O)COc1cccc2[nH]c3ccccc3c12 (centres unmarked),29%
20,CC(C)C(=O)c1ccc(O)c(O)c1,-1.47%
21,CCN(CC)CCCCC(NC(=O)c1ccc([N+](=O)[O-])cc1)c1ccccc1 (centres unmarked),16.1%
22,CCCCCCCCCCCCCCSCC(=O)O,0.32%
23,CCCn1cnc2c1c(=O)n(CCCCC(C)=O)c(=O)n2C,1.24%
24,O=C(O)CN(CCN(CC(=O)O)CC(=O)O)CCN(CC(=O)O)CC(=O)O,-0.07%

row,Compound,result_ITMP
1,CC(C)(CO)Cc1cc(C(C)(C)C)c(O)c(C(C)(C)C)c1,-4.24%
2,Fc1ccc(C(c2ccccc2)(c2ccccc2F)n2ccnc2)cc1 (centres unmarked),-0.78%
3,NC(=O)CN1CC[C@@H](NC(=O)[C@@H]2CCCN2)C1=O,0.41%
4,COc1cc(CCc2cc(NC(=O)c3ccc(N4C[C@@H](C)N[C@@H](C)C4)cc3)n[nH]2)cc(OC)c1,30.8%
5,O/N=C/c1cc[n+](COC[n+]2ccc(/C=N/O)cc2)cc1,-1.91%
6,C[n+]1ccccc1/C=N/O,-6.44%
7,CCOc1cc(N)c(Cl)cc1C(=O)NCC1CN(Cc2ccc(F)cc2)CCO1 (centres unmarked),0.46%
8,Cc1cccc(Nc2ccccc2C(=O)O)c1C,-1.77%
9,COc1ccc2[nH]cc(C3=CCNCC3)c2c1,-0.41%
10,O=C(O)CCC(=O)C(=O)O,-1.29%
11,CC(C)Nc1nc2cc(Cl)c(Cl)cc2n1[C@H]1O[C@@H](CO)[C@H](O)[C@@H]1O,0.2%
12,CN(CCOc1ccc(C[C@H](Nc2ccccc2C(=O)c2ccccc2)C(=O)O)cc1)c1ccccn1,-4.52%
13,NC(N)=NC(=O)c1cnn(-c2cccc3ncccc23)c1C1CC1,-1.94%
14,O=C1OC(CN2CCOCC2)CN1/N=C/c1ccc([N+](=O)[O-])o1 (centres unmarked),8.14%
15,CC[n+]1c(-c2ccccc2)c2cc(N)ccc2c2ccc(N)cc21,-2.9%
16,Cc1ccsc1C(=CCCN1CCC[C@@H](C(=O)O)C1)c1sccc1C,0.53%
17,NP(N)(=O)NC(=O)c1ccc(F)cc1,-5.79%
18,O=C1c2c(O)cc(O)cc2O[C@H](c2cc(O)c(O)c(O)c2)[C@H]1O,-1.12%
19,Cc1ccc(-c2c(-c3nn(C)c4ncnc(N5CC[C@H](N6CCCCC6)C5)c34)cnn2C)cc1,24.4%
20,CC(C)(N)Cc1ccccc1,-1.25%
21,CCOC(=O)c1ncc2[nH]c3ccc(OCc4ccccc4)cc3c2c1COC,-9.89%
22,Cc1cc(C)c(CNC(=O)c2cc(-c3ccc(N4CCN(C)CC4)nc3)cc3c2c(C)cn3C(C)C)c(=O)[nH]1,33.8%
23,CNCCCN1c2ccccc2CCc2ccccc21,36.6%
24,CCN(CC)CCOc1ccccc1C(=O)CCc1ccccc1,30.6%

row,Compound,result_ITMP
1,CC(C)(C(=O)NCC(F)(F)C(F)(F)F)C(=O)N[C@@H]1C(=O)Nc2ccccc2-c2ccccc21,-1.1%
2,O=C1CCC(N2C(=O)c3ccccc3C2=O)C(=O)N1 (centres unmarked),-9.75%
3,C[C@H](N)C(=O)N[C@@H](C)P(=O)(O)O,8.46%
4,O=C(Nc1ccc(N2CCC(C(=O)N3CCOCC3)CC2)cc1)c1cnc(Oc2ccccc2)nc1,-4.57%
5,O=C1NCCN1CCN1CCC(c2cn(-c3ccc(F)cc3)c3ccc(Cl)cc23)CC1,38.8%
6,c1cc2c(c(N3CCNCC3)c1)OCCO2,-1.86%
7,O=C(O)c1ccc(N2N=C(Cc3ccccc3)/C(=C\c3ccc(-c4ccccc4F)o3)C2=O)cc1,-5.6%
8,c1cn2cc(-c3ccc4cn[nH]c4c3)nc(Nc3ccc(N4CCOCC4)cc3)c2n1,-6.5%
9,O=C(O)c1cnn(-c2nc3cc(Cl)c(OC(F)(F)F)cc3[nH]2)c1,-2.3%
10,CCC1=C[C@@H]2C[N@](C1)Cc1c([nH]c3ccccc13)[C@@](C(=O)OC)(c1cc3c(cc1OC)N(C)[C@H]1[C@@](O)(C(=O)OC)[C@H](OC(C)=O)[C@]4(CC)C=CCN5CC[C@]31[C@@H]54)C2,7.31%
11,COc1ccc(C(=O)c2c(C)n(CCN3CCOCC3)c3ccccc23)cc1,0.58%
12,CCN(CC)CCNC(=O)COc1ccc(OC)cc1,-4.1%
13,CC(=O)OCC1=C(C(=O)O)N2C(=O)[C@@H](NC(=O)Cc3cccs3)[C@H]2SC1,0.66%
14,COC(=O)c1csc(C(=O)c2c[nH]c3ccccc23)n1,-2.95%
15,CCOc1ccc(NC(=O)CC(C)O)cc1 (centres unmarked),-6.27%
16,C=CCn1c(=O)c2cnc(Nc3ccc(N4CCN(C)CC4)cc3)nc2n1-c1cccc(C(C)(C)O)n1,32.4%
17,Clc1ccc(C(Cn2ccnc2)OCc2csc3c(Cl)cccc23)c(Cl)c1 (centres unmarked),4.76%
18,Clc1cccc(SC2CCNCC2)n1,0.4%
19,CC(=O)N[C@@H]1C[C@H](O)[C@@H](CO)O[C@H]1O[C@H]1[C@H](O)[C@@H](O)[C@H](O)O[C@@H]1C(=O)[O-],-0.41%
20,CC(C)(CO)CCCCCCC(C)(C)CO,-4.7%
21,CCCN(CCC)C(=O)C(CCC(=O)OCCCN1CCN(CCOC(=O)Cc2c(C)n(C(=O)c3ccc(Cl)cc3)c3ccc(OC)cc23)CC1)NC(=O)c1ccccc1 (centres unmarked),-0.73%
22,CC(C)[C@@H]1C(=O)N(S(C)(=O)=O)[C@@H]2CCN(C(=O)/C=C/CN3CCCCC3)[C@H]21,0.42%
23,Cc1ccnc2c1CCCC2C(N)=S (centres unmarked),-2.36%
24,CCOC(=O)C1=C[C@]2(CC)CCCN3CCc4c(n1c1ccccc41)[C@@H]32,-9.49%

row,Compound,result_ITMP
1,OCCCCO,-3.35%
2,Cn1c2c(c3ccccc31)CCNCC2,20.5%
3,C[C@H](N)Cc1c[nH]cn1,-1.54%
4,CC(C)c1cc(C(=O)N2Cc3ccc(CN4CCN(C)CC4)cc3C2)c(O)cc1O,8.21%
5,O=S(=O)(N[C@H](CO)C(C(F)(F)F)C(F)(F)F)c1ccc(Cl)s1,-3.74%
6,CN1CCC(COc2cnc(-c3cccc(Cn4nc(-c5cccc(C#N)c5)ccc4=O)c3)nc2)CC1,2.15%
7,COC[C@@H](NC(C)=O)C(=O)NCc1ccccc1,-4.4%
8,O=C(O)CCn1c2c(c3ccccc31)C[C@H](NS(=O)(=O)c1ccc(F)cc1)CC2,-1.07%
9,COc1cnc(NS(=O)(=O)c2ccc(N)cc2)nc1,-2.47%
10,O=C(O)CCC(=O)Nc1ccc(S(=O)(=O)Nc2nccs2)cc1,-3.42%
11,O=C1N=C(NCc2cccs2)S/C1=C\c1ccc2ncccc2c1,-2.36%
12,Cc1cccc(CN2CCN(C(c3ccccc3)c3ccc(Cl)cc3)CC2)c1 (centres unmarked),8.69%
13,Cn1cnnc1Sc1c([N+](=O)[O-])ncn1C,-0.51%
14,CNCCC(Oc1ccccc1OC)c1ccccc1 (centres unmarked),13%
15,O=NN(CCCl)C(=O)NC1CCCCC1,-5.33%
16,CCCCCCCCc1ccc(CCC(N)(CO)CO)cc1,46.4%
17,CNc1nc(NCc2ccc(NS(C)(=O)=O)cc2Cl)cc(-c2ccccn2)n1,4.77%
18,O=C1C(c2ccccn2)=[N+]([O-])c2ccccc21,1.02%
19,C[C@@H](O)[C@H]1C(=O)N2C(C(=O)[O-])=C(S[C@@H]3CN[C@H](C(=O)Nc4cccc(C(=O)O)c4)C3)[C@H](C)[C@H]12,-0.24%
20,CCCCCCCC/C=C\CCCCCCCC(=O)NCCc1ccc(O)c(O)c1,0.61%
21,O=S(=O)(/N=C/c1c(O)ccc2ccccc12)c1cccs1,-1.79%
22,O=C1OC2(c3ccc(O)cc3Oc3cc(O)ccc32)c2ccccc21,2.64%
23,CC(=O)N(CC(C)C(=O)O)c1c(I)cc(I)c(N)c1I (centres unmarked),-10.2%
